Assay results: the RNAGym collection of RNA variant scans (doi:10.7554/elife.90254)
Read counts are not given, so values of variants with three or more changes are uncertain.

B1: LINE1-full (parent)
chain: UACGUAGGUGGUUUUCCCCUGAUAGUGCUAAGGGGGCCUGGAAGUUUGGACUGGGCAGAGCUCAACACAGCGUGGCAAAGUGGCUGUGGCUAGACUGCCUCUCUGGAUUCCUCGUCACUCAGCAGGGCAUCUCUGAGAGAAAUGCC

Variants of: B1
Assay: self-cleavage, relative activity (ratio to wild type); higher = more cleavage; in vitro, sequencing; the parent is a self-cleaving ribozyme

Row | Variant | self-cleavage
1 | UACGUAGGUGGUUUCCCCCUGAUAGCGCUAAGGGGGCCUGGAAGUAUGGACUGGGCAGAGCUCAACACAGCGUGGCAAAGUGGCUGUGGCUAGACUGCCUCUCCGGAUUCCUCGUCACUCAGCAGGGCAUCUCUGAGAGAGAUGCC [U15C U26C U46A U104C A141G] | 2.76
2 | UACGUAGGUGGUUUCCCCCUGAUAGUGCUAAGGGGGCCUGGAAGUUUGGACUGGGCAGAGCUCAACACAGCGUGGCAAAGUGGCUGUGGCUAGACUGCCACUCUGGAUUCCUCGUCACUCAGCGGGGCAUCUCUGAGAGAAAUGCC [U15C U100A A124G] | 1.09
3 | UGCAUAGGUGGUUUUCCCCUGAUAGUGCUAAGGGGGCCUGGAAGCUUGGACUGGGCAGAGCUCAACACAGCGUGGCAAAGUGGCUGUGGCUAGACUGCCUCUCUGGAUUCCUCGUCACUCAGCAGGGCAUCUCUGAGAGAAAUGCC [A2G G4A U45C] | 1.62
4 | UACGUAGGUGGUUUUCCCCUGAUAGUGCUAAGGGGGCCUGGAAGUUUGGACUGGGCAGAGCUCAACACAGCGUGGCAAAGUGGCUGUGGCUAGACUGCCUCCCUGGAUUCCUCGUCAUUCAGCAGGGCAUCUCUGAGGGAAAUGCC [U102C C118U A138G] | 1.36
5 | UACGUAGGCGGUUUUCCCCUGAUAGUGCUAAGGGGGCCUGGAAGUUUGGACUGGGCAGAGCCCAACACAGCGUGGCAAAGUGGCUGUGGCUAGACUGCCUCUCUGGAUUCCUCGUCACCCAGCAGGGCAUCUCUGAGAGAAAUGCC [U9C U62C U119C] | 0
6 | UACGUAGGUGGUUUACCCCUGAUAGUGCUAAGGGGGCCUGGAAGUUUGGACUGGGCAGAGCUCAACCCAGCGUGGCAAAGUGGCUGCGGCUAGACUGCCUCUCUGGAUUCCUCGUCACUCAGCAGGGCAUCUCUGAGAGAAAUGCC [U15A A67C U87C] | 0.25
7 | UACGUAGGUGGUCUUCCCCUGAUAGUGCUAAGGGGGCCUGGAUGUUUGGACUGGGCAGAGCUCAACACAGCGUGGCAAAGUGGCUGUGGCUAGACUGCCUCUCUGGAUUCCUCGUCACUCAGCAGGGCUUCUCUGAGAGAAAUGCC [U13C A43U A129U] | 1.25
8 | UACGUAGGUGGUUUUCCCCUGAUAGCGCUAAGGGGGCCUGGAAGUUUGGACUGGGCAGAGCUCAACACAGCGUUGCAAAGUGGCUGUGGCUAGACUGCCUCUCAGGAUGCCUCGUCACUCAGCAGGGCAUCACUGAGAGAAAUGCC [U26C G74U U104A U109G U132A] | 0.24
9 | UACGAAGGUGGUUUUCCCCUGAUAGUGCUAAGGGGGCCUGGAAGUUUGGACUGGGCAGAGCUCUACACGGCGUGGCAAAGUGGCUGUGGCUAGACUGCCUCUCUGGAUUCCUCGUCACUCAGCAGGGCAUCUCUGAGAGAAAUGCC [U5A A64U A69G] | 0.07
10 | UACGUAGGUGGUUUUCCCCUGAUAGUGCUAAGGGGGCCUGGAAGUUUGGACUGGGCAGAGCUCAACACGGCGUGGCAAAGUGGCUGUGGCUAGACUGCCUCUCUGGAUUCCCCGUCACUCAGCAGGGCAUCUCUGAGAGAAGUGCC [A69G U112C A142G] | 0
11 | UACGUAGGUGGUUUUCCCCUGAUAGUGCUAAGGGAGCCUGGAAGUUUGGACUGGGCAGAGCUCAACACAGCGUAGCAAAGUGGCUGUGGCUAGACUGCCUCUCUGGAUCCCUCGUCACUCAGCAGGGCAUCUCUGUGAGAAAUGCC [G35A G74A U109C A136U] | 0.69
12 | UACGUAGGUGGUUUUCCCCUGAUAGUGCUAAGGGGGCCUGGUAGUUUGGACUGGGCAGAGCUCAACACAGCGUGGCAAAGUGGCUGCGGCUAGACUGCUUCUCUGGAUUCCUCGUCACUCAGCAGGGCAUCUCUGAGAGAAAUGCC [A42U U87C C99U] | 0.07
13 | UACGUAGGUGGCUUUCCCCUGAUAAUGCUAAGGGGGCCUGGAAGUUAGGACUGGGCAGAGCUCAUCACAGCGUGGCAAAGUGGCUGCGGCUAGACUGCCUCUCUGGAUUCCUCGUCACUCAGCAGGGCAUCUCUGAGAGAGAUGCC [U12C G25A U47A A65U U87C A141G] | 0.09
14 | UACGUAGGUGGUUUUCCCCUGAUAGCGCUAAGGGGGGCUGGAAGUUUGGACUGGGCAGAGCUCAACACAGCGUGGCAAAGUGGCUGUGGCUAGACUGCCUCUCUGGAUUCCUCGUCACACAGCAGGGCUCCUCUGAGAGAAAUGCC [U26C C37G U119A A129U U130C] | 1.68
15 | UACGUAGGUGGUUUUCCCCUGAUAGUGCUAAGGGGGCCUGGAAGUUUGGACUGGGCAGAGCACAACACAGCGUGGCAAAGUGGCUGUGGCUAGACUGCCUCUCUGGAUUCCUCGUCACUCAGCAGGGCGUCCCUGGGAGAAAUGCC [U62A A129G U132C A136G] | 0.06
16 | CACGUAGGUGGUUUUCCCCUGAUAGUGCUAAGGGGGCCUGGAAGGUUGGACUGGGCAGAGCCCAACACAGCGUGGCAAAGUGGCUGCGGCUAGACUGCCUCUCUGGAUUCCUCGUCACUCAGCAGGGCAUCUCUGAGAGAAAUGCC [U1C U45G U62C U87C] | 0.27
17 | UACGUAGGUGGUUUUCCCCUGAUAGUGCCAAGGGGGCCUGGAAGUUUGGACUGGGCAGAGCCCAACACAGCGUGGCAUAGUGGCUGUGGCUAGACUGUCUCUCUGUAUUCCUCGUCACUCAGCAGGGCAUCUCAGAGAGAAAUGCC [U29C U62C A78U C98U G106U U134A] | 0.01
18 | UACGUAAGUGGUUUUCCCCUGAUAGUGCUAAGGGGGCCUGGAAGUUUGGACUGGGCAGAGCUCAACACAGCGUGGCAAAGUGGCUGUGGCUAGACUGCCUCUCUGGAUUCCUCGUCACUCCGCAGGGCAUCUCUGGGAGAAAUGCC [G7A A121C A136G] | 1.3
19 | UACGUAGGUGGUUUUCCCCUGAUAGUGCUAUGGGGGCCUGGAAGUUUGGACUGGGCAGAGCUCAACACAGCGUGGCAAAGUGGCUGCGGCUAGACUGCCUCUCUGGAUUCCUCGUAACUCAGCAGGGCAUCUCUGAGAGAAAUGCC [A31U U87C C116A] | 0.28
20 | UACGUAGGUGGUUUUCCCCUGAUAGUGCUAAGGGGGCCUGGAAGUUUGGACUGGGCAGAGCUCAACACAGCGAGGCAAAGUGGCUGUGGCUAGACUGCCUCUCUGGAUCCCUCGCCACUCAGCUGGGCAUCUCUGAGAGAAAUGCC [U73A U109C U115C A124U] | 1.15
